# The supplement of paper PMC9174493
# This is one part of the list. Single values of this set are uncertain. Values with irradiation are relative to irradiated vehicle.
# System: A549-Dual
# Experiment: ISRE reporter (Lucia luciferase) activity, viability-corrected, relative to vehicle (fold change vs vehicle); higher = more activation of STING-IRF / NF-kB immune response reporter
# Settings: 0.3 µM; irradiation: 8 Gy/4 fr
row,Compound,ISRE reporter
1,C=CC(=O)Nc1cc(Nc2nccc(-c3cn(C)c4ccccc34)n2)c(OC)cc1N(C)CCN(C)C [Osimertinib (AZD9291)],0.964
2,CC1CC2C3CCC4=CC(=O)C=CC4(C)C3(F)C(O)CC2(C)C1(O)C(=O)COP(=O)([O-])[O-].[Na+].[Na+] (stereo not given) [Dexamethasone Sodium Phosphate],0.0735
3,O=C(O)CCCN1CCC(OC(c2ccc(Cl)cc2)c2ccccn2)CC1.O=S(=O)(O)c1ccccc1 (stereo not given) [Bepotastine Besilate],1.08
4,CC(=O)OC(C)C(C)C(=O)OCC12C3CC4(C)C(=CCC5C6(C)CCC(OC7OC(C(=O)[O][Na])C(OC8OC(CO)C(O)C(O)C8O)C(O)C7OC7OCC(O)C(O)C7O)C(C)(CO)C6CCC54C)C1CC(C)(C)C(O3)C2O (stereo not given) [Sodium Aescinate],1.22
5,Nc1nc(CC(=O)Nc2ccc(CCNCC(O)c3ccccc3)cc2)cs1 (stereo not given) [Mirabegron],0.998
6,O=C1OC(OC(=O)c2cccnc2Nc2cccc(C(F)(F)F)c2)c2ccccc21 (stereo not given) [Talniflumate],0.853
7,CN1C(C(=O)Nc2ccccn2)=C(O)c2sccc2S1(=O)=O [Tenoxicam],1.03
8,CCC(=O)NS(=O)(=O)c1ccc(-c2c(-c3ccccc3)noc2C)cc1 [Parecoxib],1.06
9,CNCC(O)C(O)C(O)C(O)CO.Cc1c(Nc2ncccc2C(=O)O)cccc1C(F)(F)F [Flunixin Meglumin],0.752
10,Cc1cncc(CN2CCC(=C3c4ccc(Cl)cc4CCc4cccnc43)CC2)c1.O=C(O)/C=C/C(=O)O [Rupatadine Fumarate],0.68
